{
  "source": "PubChem BioAssay AID1768",
  "about": "(National Center for Advancing Translational Sciences (NCATS), 2009)",
  "note": "Among all 270,000 compounds or so, about 620 (0.23%) were called active. Inconclusive results, whose numbers are uncertain, are shown with a selection of clear calls. Calls come from the whole dose curve; as a rule, active = well fitted inhibition curve with a large enough effect in the polarisation, with a control signal flat (not every such curve was filed as active); inconclusive = small, poorly fitted or top-dose-only effect, or effect the other way, or a change in a side signal; inactive = no such curve, though single readings can be large or run the other way; the % refers to the polarisation. Potencies beside an inconclusive call are fits to weak or partial responses and may not hold up. A note “side channel” means that the fit belongs to a control or component signal, not to the main read-out. Potency is the fitted concentration of half-maximal effect; tags give direction and shape of the fitted curve or compound fluorescence and quenching.",
  "data": [
    {"target": "Menin (Homo sapiens) (UniProt O00255)", "sequence (O00255 whole entry, looked up)": "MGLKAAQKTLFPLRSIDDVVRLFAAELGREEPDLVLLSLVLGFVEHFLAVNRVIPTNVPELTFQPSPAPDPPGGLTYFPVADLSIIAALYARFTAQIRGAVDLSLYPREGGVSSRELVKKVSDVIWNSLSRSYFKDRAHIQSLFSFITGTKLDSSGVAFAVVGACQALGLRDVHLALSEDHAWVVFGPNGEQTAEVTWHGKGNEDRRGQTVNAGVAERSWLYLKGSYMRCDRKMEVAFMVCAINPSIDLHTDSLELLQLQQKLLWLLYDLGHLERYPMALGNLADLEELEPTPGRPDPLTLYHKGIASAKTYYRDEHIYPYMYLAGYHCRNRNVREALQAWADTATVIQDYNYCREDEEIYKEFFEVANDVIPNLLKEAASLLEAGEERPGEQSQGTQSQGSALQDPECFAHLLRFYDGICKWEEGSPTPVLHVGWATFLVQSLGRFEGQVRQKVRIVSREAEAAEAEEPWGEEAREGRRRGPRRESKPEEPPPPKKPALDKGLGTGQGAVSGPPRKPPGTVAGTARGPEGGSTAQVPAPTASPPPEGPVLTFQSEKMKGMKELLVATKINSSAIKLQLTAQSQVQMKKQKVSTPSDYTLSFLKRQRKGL", "experiment": "qHTS Assay for Inhibitors Targeting the Menin-MLL Interaction in MLL Related Leukemias: Competition With Texas Red Labeled MLL-derived Mutant Peptide", "conditions": "fluorescence polarization; series mostly up to 61.6 µM", "values": [
      {"smiles": "Cc1ccc(NC(=O)C2CCN(S(=O)(=O)c3cccs3)CC2)c(O)c1", "Potency": "inconclusive: 31.6 µM [quencher, side channel, single point]"},
      {"smiles": "COc1ccc(N2CCN(c3nc(NCCc4ccc(OC)c(OC)c4)nc(OC)n3)CC2)cc1", "Potency": "inconclusive: 7.08 µM [fluorescent, side channel, single point]"},
      {"smiles": "Cc1ccc(Oc2ccc3c(c2)C(=O)N(c2cccc4cccnc24)C3=O)cc1", "Potency": "inconclusive: 44.7 µM [inhibitor, single point]"},
      {"smiles": "COc1ccc(C2CC(c3ccccc3)=NN2c2ccc(Cl)c(C(=O)O)c2)cc1", "note": "(configuration not stated)", "Potency": "inconclusive: 12.6 µM [quencher, partial curve]"},
      {"smiles": "CC(=O)Nc1ccc(S(=O)(=O)N2CCSC2c2ccccc2Cl)cc1", "note": "(configuration not stated)", "Potency": "inconclusive: 31.6 µM [quencher, side channel, partial curve]"},
      {"smiles": "Cc1ccc(NC(=O)NNC(=O)COc2ccc([N+](=O)[O-])cc2)cc1C", "Potency": "inconclusive: 39.8 µM [fluorescent, side channel, single point]"},
      {"smiles": "CCc1ccc(C(=O)/C=C/Nc2ccc(S(=O)(=O)Nc3onc(C)c3C)cc2)cc1", "Potency": "inconclusive: 11.2 µM [quencher, side channel, partial curve]"},
      {"smiles": "Cc1ccc(N(Cc2cc3ccc(C)cc3[nH]c2=O)S(=O)(=O)c2ccccc2)c(C)c1", "Potency": "inconclusive: 28.2 µM [fluorescent, side channel, single point]"},
      {"smiles": "CCCCCC(=O)Nc1ccc(C2C(=O)c3ccccc3C2=O)cc1", "Potency": "inconclusive: 20 µM [quencher, side channel, partial curve]"},
      {"smiles": "O=C1/C(=C/c2ccc(Br)cc2)Oc2cc(O)ccc21", "Potency": "inconclusive: 28.2 µM [quencher, side channel, single point]"},
      {"smiles": "CCOc1ccc(CN2CCN(c3ncnc4scc(-c5ccccc5)c34)CC2)cc1", "Potency": "inconclusive: 12.6 µM [fluorescent, side channel, partial curve]"},
      {"smiles": "Cc1ccc(NC(=O)Nc2nnc(Cc3ccc([N+](=O)[O-])cc3)s2)cc1", "Potency": "inconclusive: 2.24 µM [quencher, side channel, full curve]"},
      {"smiles": "COc1ccc2[nH]c(C(=O)N/N=C/c3cc(OC)c(OC)c(OC)c3)cc2c1", "Potency": "inactive"},
      {"smiles": "CCO[C@@H]1OC(C(=O)N2CCN(Cc3ccc4c(c3)OCO4)CC2)=C[C@H](c2csc3ccccc23)[C@H]1CCCO", "Potency": "inconclusive: 3.98 µM [fluorescent, side channel, full curve]"},
      {"smiles": "COC(=O)c1cc(S(=O)(=O)NCC2CCN(Cc3ccc(Cl)cc3)CC2)cn1C", "Potency": "inactive"},
      {"smiles": "C/C(N)=C(/C#N)C(=O)CSc1cc(C)c2cc(C)cc(C)c2n1", "Potency": "inconclusive: 39.8 µM [quencher, side channel, single point]"},
      {"smiles": "O=C1NC(=O)C2C3C=CC(C3)C12", "note": "(configuration not stated)", "Potency": "inactive"},
      {"smiles": "CC(C)C1OC2(C)OC(=N)C1(C#N)C(C#N)(C#N)C2c1ccccc1", "note": "(configuration not stated)", "Potency": "inactive"},
      {"smiles": "CCCN(CCc1cccs1)[C@H]1CCc2c(O)cccc2C1", "Potency": "inactive"},
      {"smiles": "N#C/C(=C(/O)COC(=O)c1ccc2c(c1)OCCO2)c1nc2ccccc2[nH]1", "Potency": "inconclusive: 39.8 µM [quencher, side channel, single point]"},
      {"smiles": "CNc1ccc(Br)cc(C(=O)/C=C/c2ccc(OC)cc2)c1=O", "Potency": "inconclusive: 39.8 µM [quencher, side channel, single point]"},
      {"smiles": "COc1cccc(C(=O)Nc2cccc3c2ccc2cccn23)c1", "Potency": "inconclusive: 31.6 µM [quencher, side channel, single point]"},
      {"smiles": "CCN1CCN(c2ccc(NC(=O)c3ccc(Br)o3)cc2)CC1", "Potency": "inactive"},
      {"smiles": "CC(C)(C)N(Cc1ccccc1)C(=O)c1cc2ccccc2o1", "Potency": "inconclusive: 11.2 µM [fluorescent, side channel, partial curve]"},
      {"smiles": "COc1ccc(/C(N)=N/OC(=O)c2cccc([N+](=O)[O-])c2)cc1OC", "Potency": "inconclusive: 28.2 µM [quencher, side channel, single point]"},
      {"smiles": "C/C=C/C=N/Nc1nc(-c2ccc([N+](=O)[O-])cc2)cs1", "Potency": "inconclusive: 12.6 µM [quencher, side channel, partial curve]"},
      {"smiles": "O=C(Nc1ccc(N2CCCC2)cc1)c1cc(Br)ccc1Cl", "Potency": "inconclusive: 20 µM [quencher, side channel, partial curve]"},
      {"smiles": "O=[N+]([O-])c1ccc(N=Nc2c(O)[nH]c3ccc(F)cc23)cc1", "Potency": "inconclusive: 11.2 µM [quencher, side channel, partial curve]"},
      {"smiles": "CCCCSc1nnc([C@@H]2CCCN2C(=O)OC(C)(C)C)o1", "Potency": "inconclusive: 12.6 µM [fluorescent, side channel, partial curve]"},
      {"smiles": "CC(=O)N1CCC2(CC1)CN(c1ccccn1)C2", "Potency": "inactive"},
      {"smiles": "Cc1ccccc1NC1=C/C(=N\\S(=O)(=O)c2ccc(C(=O)O)cc2)c2ccccc2C1=O", "Potency": "inconclusive: 14.1 µM [quencher, side channel, partial curve]"},
      {"smiles": "CCOC(=O)CSc1nc(N2CCOCC2)c2c(c1C#N)CC(C(C)C)OC2", "note": "(configuration not stated)", "Potency": "inconclusive: 10 µM [fluorescent, side channel, partial curve]"},
      {"smiles": "O=[N+]([O-])c1ccc(N/N=C\\c2ccccc2OCc2ccccc2)cc1", "Potency": "inconclusive: 11.2 µM [quencher, side channel, partial curve]"},
      {"smiles": "Cc1cc(C)cc(N(CC(=O)NC2CCCC2)C(=O)CCC(=O)Nc2cc(C)ccn2)c1", "Potency": "inconclusive: 2.82 µM [fluorescent, side channel, partial curve, poor fit]"},
      {"smiles": "CC(=O)N1CCC2(CCCN(Cc3cc(C(F)(F)F)cc(C(F)(F)F)c3)C2)CC1", "Potency": "inactive"},
      {"smiles": "COc1ccc(NS(=O)(=O)c2ccc(NC(=O)c3ccc(Br)cc3)cc2)nn1", "Potency": "inconclusive: 11.2 µM [quencher, side channel, partial curve]"},
      {"smiles": "C=CCn1c(O)c(N=NC(=S)Nc2ccccc2C)c2cc(S(=O)(=O)N3CCOCC3)ccc21", "Potency": "inconclusive: 12.6 µM [quencher, side channel, partial curve]"},
      {"smiles": "CCC(CC)C(=O)Nc1ccc(Sc2ccc([N+](=O)[O-])cc2)cc1", "Potency": "inconclusive: 2.82 µM [quencher, side channel, full curve]"},
      {"smiles": "O=C(Nc1ccccc1NC(=O)NC1CCCCC1)NC1CCCCC1", "Potency": "inconclusive: 31.6 µM [fluorescent, side channel, single point]"},
      {"smiles": "O=C(Nc1ccc(Cl)c(Cl)c1)Oc1ccc(NC(=O)c2ccco2)cc1", "Potency": "inconclusive: 22.4 µM [quencher, side channel, partial curve]"},
      {"smiles": "Cc1ccc(-c2csc(NC(=O)c3ccc(-c4ccccc4)cc3)n2)o1", "Potency": "inconclusive: 12.6 µM [quencher, side channel, partial curve]"},
      {"smiles": "C/C(=N/NC(=O)c1cc2ccccc2cc1O)C1C(=O)c2ccccc2C1=O", "Potency": "inconclusive: 12.6 µM [quencher, side channel, partial curve]"},
      {"smiles": "Cn1c(SCC(=O)NCC2CCCO2)nnc1-c1cccc(NC(=O)c2ccccc2F)c1", "note": "(configuration not stated)", "Potency": "inconclusive: 39.8 µM [fluorescent, side channel, single point]"},
      {"smiles": "O=C1[C@H](O)[C@@H](O)C(=O)N1Cc1ccccc1", "Potency": "inconclusive: 17.8 µM [inhibitor, partial curve]"},
      {"smiles": "COc1cc(/C=C2\\C(=O)N(c3ccc(NC(C)=O)cc3)N=C2c2ccccc2)ccc1O", "Potency": "inconclusive: 28.2 µM [quencher, side channel, partial curve]"},
      {"smiles": "CC(C)NC(=O)c1ccc(COc2cc(Cl)ccc2Cl)o1", "Potency": "inconclusive: 39.8 µM [inhibitor, single point]"},
      {"smiles": "O=C(Oc1ccc(F)cc1)c1cccnc1", "Potency": "inactive"},
      {"smiles": "O=C(N/N=C/c1cccs1)C(=O)Nc1cccc(Cl)c1", "Potency": "inconclusive: 39.8 µM [inhibitor, single point]"},
      {"smiles": "O=c1c(Cl)c(NCCCO)cnn1-c1nc2ccccc2[nH]1", "Potency": "inconclusive: 11.2 µM [inhibitor, single point]"},
      {"smiles": "CCn1cc(C(=O)OCC(=O)c2cc(C)n(-c3ccccc3F)c2C)c(=O)c2ccc(C)nc21", "Potency": "inconclusive: 7.94 µM [fluorescent, side channel, partial curve]"},
      {"smiles": "Cc1nccn1CC(O)Cn1c2ccccc2c2ccccc21", "note": "(configuration not stated)", "Potency": "inactive"},
      {"smiles": "O=C(O)c1ccccc1NS(=O)(=O)c1ccc2ccccc2c1", "Potency": "inconclusive: 25.1 µM [quencher, side channel, partial curve]"},
      {"smiles": "COC(=O)c1cn(C(=O)/C=C/c2ccc(OC)c(OC)c2)c2ccccc12", "Potency": "inconclusive: 10 µM [quencher, side channel, partial curve]"},
      {"smiles": "c1csc(C2Nc3cccc4cccc(c34)N2)c1", "Potency": "inconclusive: 8.91 µM [quencher, side channel, partial curve]"},
      {"smiles": "O=S(=O)(Nc1ccc2c(c1)OCCO2)c1ccc(F)c(F)c1", "Potency": "inconclusive: 28.2 µM [quencher, side channel, single point]"},
      {"smiles": "COc1ccc2[nH]cc(CCNc3nc(-c4cccc(C#N)c4)nc4ccccc34)c2c1", "Potency": "inconclusive: 3.16 µM [quencher, side channel, full curve]"},
      {"smiles": "O=C(Nc1cccc(C(F)(F)F)c1)c1cc2c(=O)c3ccccc3oc2nc1C(F)(F)F", "Potency": "inconclusive: 14.1 µM [quencher, side channel, partial curve]"}
    ]}
  ]
}
